In all, about 110,000 compounds were measured (“z-score”: median about -0.1, highest 2% from about 2 on). The list shows a part of the results.

This experiment concerns the target Metabotropic glutamate receptor 8 (Rattus norvegicus) (UniProt P70579). In words: rat mGluR8 modulators via GIRK flux, primary screen, cell-based, thallium flux, HTS (AID 488969). The following applies: HEK293 rat mGluR8, GIRK (G protein-gated inwardly rectifying potassium channel) thallium flux, FluoZin2; at 10 µM; stronger effect = higher value; submaximal glutamate (EC20) added with thallium.
Chain of UniProt P70579 (P70579 whole entry, looked up): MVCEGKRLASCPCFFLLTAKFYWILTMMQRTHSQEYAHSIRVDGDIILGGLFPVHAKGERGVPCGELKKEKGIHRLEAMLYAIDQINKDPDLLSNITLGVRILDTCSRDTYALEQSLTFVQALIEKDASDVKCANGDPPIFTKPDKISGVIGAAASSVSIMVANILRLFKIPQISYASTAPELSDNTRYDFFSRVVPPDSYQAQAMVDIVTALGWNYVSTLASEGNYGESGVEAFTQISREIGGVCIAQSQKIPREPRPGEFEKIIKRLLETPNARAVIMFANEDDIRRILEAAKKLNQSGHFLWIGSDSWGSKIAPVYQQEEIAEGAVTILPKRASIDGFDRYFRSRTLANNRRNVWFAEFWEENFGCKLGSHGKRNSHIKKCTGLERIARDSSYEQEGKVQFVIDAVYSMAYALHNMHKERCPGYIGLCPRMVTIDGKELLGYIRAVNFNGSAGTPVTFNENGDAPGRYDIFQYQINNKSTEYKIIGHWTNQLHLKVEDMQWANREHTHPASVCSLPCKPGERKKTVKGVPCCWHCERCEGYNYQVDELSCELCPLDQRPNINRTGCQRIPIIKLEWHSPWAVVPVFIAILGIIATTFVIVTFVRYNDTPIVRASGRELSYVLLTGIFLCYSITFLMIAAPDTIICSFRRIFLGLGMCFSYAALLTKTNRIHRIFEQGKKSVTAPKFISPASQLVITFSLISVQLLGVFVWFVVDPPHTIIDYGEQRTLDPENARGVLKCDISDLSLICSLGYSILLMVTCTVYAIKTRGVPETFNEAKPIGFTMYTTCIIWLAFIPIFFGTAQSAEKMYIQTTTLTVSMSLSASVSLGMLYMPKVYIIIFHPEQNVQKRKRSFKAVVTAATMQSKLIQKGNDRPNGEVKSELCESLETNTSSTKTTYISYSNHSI
On to `COCc1cc(C)nc2sc(C(=O)OC(C)C)c(N)c12`, for which the z-score is -0.585.

As to `O=C(Nc1ccccc1OC(=O)c1ccc(Cl)cc1)c1ccc(Cl)cc1`, the z-score was -0.196.

Take `Cc1cc(C)c2c(N=NN3CCCCC3)[nH]nc2n1`: the z-score was -0.0999.

In turn, `COc1ccc(C2c3c(ncn(CCN4CCOCC4)c3=N)Oc3ccc4ccccc4c32)cc1OC` (stereo not drawn) had a z-score of 0.922.

As to `COCCNC(=O)C(OC(=O)CC1Sc2ccccc2NC1=O)c1ccccc1` (stereo not drawn), the z-score is -0.53.

Regarding `CN(CC(=O)N1CCc2ccccc21)S(=O)(=O)c1cccs1`, the z-score was -0.159.

As for `CCOC(=O)C1=C(N)OC2=C(C(=O)CC(C)(C)C2)C1c1ccco1` (stereo not drawn), the z-score is -0.712.

The compound `O=C(Nc1ccc(N=Nc2ccccc2)cc1)c1cccc(Cl)c1` registered a z-score of 0.145.

The compound `CCSc1nc2ccccc2n1Cc1ccccc1F` gave a z-score of 0.121.

For the compound `O=S(=O)(c1ccccc1C(F)(F)F)N1CCC(n2cnc3ccccc32)CC1`, the z-score worked out at 0.446.

Turning to `O=C(NCc1ccccn1)C1CC(c2ccc(Cl)c(Cl)c2)=NO1` (stereo not drawn), the z-score is 0.79.

`N#Cc1nc(-c2cccs2)oc1N1CCOCC1` had a z-score of 1.01.

Take `COc1ccc(CC(=O)n2nc(-c3ccc(Cl)cc3)nc2NCc2ccco2)cc1`: the z-score came out at 0.246.

In the case of `O=C(NCCC1=CCCCC1)c1ccc2c(c1)N(Cc1ccccc1)C(=O)CS2`, the z-score is -1.88.

The compound `COc1ccc(N2CCSC2C(=O)NN)cc1` (stereo not drawn) came in with a z-score of 2.09.

`CC1(C)CC(=O)C2=C(C1)N(Cc1ccco1)C(=O)C2(NC(=O)c1cccnc1)C(F)(F)F` (stereo not drawn) displayed a z-score of 0.054.

The compound `COc1nc(NC(C)(C)C)nc(Oc2ccc(=O)n(C)n2)n1` came in with a z-score of 0.992.

`CCN(CCCNC(=O)CN(C)S(=O)(=O)c1ccc2c(c1)CCC(=O)N2)c1cccc(C)c1`: the z-score was -0.598.

As to `CC(C)(Cc1nc2ccccc2[nH]1)C(=O)O`, the z-score worked out at 0.49.

`COc1ccc(CNS(=O)(=O)c2cccc(S(=O)(=O)N3CCOCC3)c2)cc1` gave a z-score of 0.231.

Turning to `O=C(CCCCn1c(=O)c2ccccc2n(Cc2ccc(F)cc2)c1=O)NCc1ccco1`, the z-score is -1.07.

For the compound `CN(C)S(=O)(=O)c1cccc(C(=O)NCc2ccco2)c1`, the z-score was -0.126.

`COc1cc(/C=C2/C(=O)ON=C2C)ccc1OCc1ccccc1F` came in with a z-score of 0.886.

For `Cc1ccc(S(=O)(=O)NC(=O)CSc2nc3ccccc3s2)cc1`, the z-score was -0.103.

Take `CC(C)CCN1CCNC(=O)C1CC(=O)Nc1ccc(F)cc1` (stereo not drawn): the z-score was -0.94.

`COc1ccc(C(=O)N/C(=C\c2cn(C)c3ccccc23)C(=O)OCC(C)C)cc1`: the z-score was -0.102.

For the compound `Nc1ccc(-n2nncc2-c2ccccc2)cc1`, the z-score is -0.0244.

As to `Nc1nc(SCCOc2ccccc2)n[nH]1`, the z-score was -0.0514.

`O=C(CSc1nc(-c2ccco2)cc(C(F)(F)F)n1)NCc1cccs1`: the z-score is -0.1.

Take `C=CCn1c(CSc2nc3ccccc3s2)n[nH]c1=S`: the z-score was 0.967.

For the compound `CCOC(=O)c1nnn(-c2nonc2N)c1C`, the z-score was -0.267.

With `COc1cc(/C=N/Nc2ccc(F)cc2F)cc(OC)c1O`, the z-score came to 0.857.

Regarding `Cc1cccc(Oc2c(C=O)c3ccccc3n2C)c1`, the z-score was -0.785.

Consider `CCc1nc(SCC(=O)Nc2cccc(C(F)(F)F)c2)c2c(=O)n(C)c(=O)n(C)c2n1`, for which the z-score was -0.0329.

On to `COc1cccc(C(=O)Nc2ccc(N3CCN(Cc4ccccc4)CC3)cc2)c1`, for which the z-score was -0.07.

With `CNC(=O)c1cccc(N2CCCC2=O)c1`, the z-score is -0.0243.

`Cc1noc(C)c1CSc1nnc2c(C)cc3ccccc3n12` had a z-score of 0.0174.

Take `Cc1ccc(NC2(C#N)C(=O)Nc3ccccc32)cc1` (stereo not drawn): the z-score was -0.263.

As for `CC(OC(=O)c1ccc(F)cc1)C(=O)Nc1nc(-c2cccc([N+](=O)[O-])c2)cs1` (stereo not drawn), the z-score was -0.681.

On to `COC(=O)C1=C(C)N(c2ccc(C(=O)OC)cc2)C(=O)C1`, for which the z-score is 0.602.

For the compound `COc1ccc(C(=O)CCC(=O)O)cc1`, the z-score is -0.601.

As to `COCCNC(=O)CCc1c(C)nc2c(-c3ccc(F)cc3)c(C)nn2c1C`, the z-score was -0.234.

With `CCOC(=O)c1c(C)[nH]c(C(=O)COC(=O)COc2ccccc2C=O)c1C`, the z-score is -0.645.

Take `CCn1c2ccccc2c2cc(NC(=O)N3CCOCC3)ccc21`: the z-score is -0.213.

As to `O=C(O)CCNS(=O)(=O)c1ccc(Oc2ccccc2Cl)cc1`, the z-score turned out to be 0.0172.

As to `O=C(CCCSc1nc2ccccc2[nH]1)NC1=NCCS1`, the z-score is -0.389.

In turn, `COc1ccc(S(=O)(=O)N(C)CC(=O)Nc2cccc(C(C)=O)c2)cc1C` came in with a z-score of 0.107.

In turn, `Cn1nc(N)c2c(-c3ccccc3)c(C#N)c(N)nc21` had a z-score of 0.569.

With `COc1ccc(CN2CC34C=CC(O3)C(C(=O)O)C4C2=O)cc1` (stereo not drawn), the z-score is 0.133.

With `Cc1c(Cl)cccc1NC(CC(=O)c1ccccc1)C(=O)OCC(=O)c1cccs1` (stereo not drawn), the z-score is -0.547.

With `O=C(O)CCCCCNS(=O)(=O)c1c(Cl)cccc1Cl`, the z-score was found to be 1.2.

For `Cc1c(Cc2ccccc2)sc(NC(=O)/C=C/c2cccc3ccccc23)c1C(N)=O`, the z-score was -0.326.

With `O=C(c1ccccc1)c1ccccc1C(=O)N1CCOCC1`, the z-score was -0.379.

For `Cc1ccc(-c2nc3cnccn3c2Nc2c(C)cccc2C)o1`, the z-score was -0.399.

In the case of `CCSc1nnc(NC(=O)CSc2ncccn2)s1`, the z-score was -0.207.

As to `O=c1oc(-c2cccs2)nc2ccc(Br)cc12`, the z-score is -0.856.

For `CCCCCC(=O)N1CCCC(c2nc(-c3ccc(OC)cc3)no2)C1` (stereo not drawn), the z-score was -2.17.

As for `Cc1ccc(N2C(=O)CSC2c2ccc3c(c2)OCO3)cc1` (stereo not drawn), the z-score was found to be 0.117.

As to `Cc1nc2ccc(NC(=O)N3CCSCC3)cc2s1`, the z-score was -0.354.

In turn, `C#CC(=O)N(c1cccc(OC)c1)C(C(=O)NC1CCCC1)c1cccs1` (stereo not drawn) came in with a z-score of 0.114.

With `CCCCN(CC)CCNC(=O)CN1C(=O)COc2ccc(S(=O)(=O)N3CCCC3)cc21`, the z-score was -0.08.

`COC(=O)C1=C(C)Nc2nc(-c3ccccc3)nn2C1c1ccc(C)o1` (stereo not drawn) had a z-score of 0.412.

Regarding `O=C(NCCc1ccccc1)C1CCN(S(=O)(=O)c2ccc(-n3cnnn3)cc2)CC1`, the z-score is -0.101.

Take `COc1ccc2[nH]c(=O)c(CNC3CCCCC3)cc2c1`: the z-score is -0.291.

For the compound `COc1ccc(OC)c(NC(=O)c2cnc3ccccn3c2=O)c1`, the z-score was -0.233.

`CCOC(=O)C1=C(C)NC(=O)CC1c1ccccc1` (stereo not drawn) gave a z-score of 0.409.

As for `CCCCn1c(CCC(=O)O)nc2c1c(=O)[nH]c(=O)n2CCC`, the z-score is -0.0706.

For `CCCN(CCC)CCNc1c(NC2CCN(C(=O)OCC)CC2)c(=O)c1=O`, the z-score came out at 0.463.

On to `COc1ccc(NC(=S)N2CCOCC2)c(OC)c1`, for which the z-score came to 0.197.

Regarding `O=C(Nc1cccnc1)c1ccco1`, the z-score was -0.28.

Compound `Cc1ccn2cc(CCNS(=O)(=O)c3ccc(F)c(C(F)(F)F)c3)nc2c1` had a z-score of 0.0106.

In the case of `CCC(C)(C)NC(=O)C(c1ccc(OC)cc1)N(Cc1ccco1)C(=O)CCC(=O)Nc1cc(C)on1` (stereo not drawn), the z-score is 0.0565.

For the compound `COc1ccc(Nc2nc(C)cc(C)c2C#N)cc1`, the z-score is 0.405.

Source of the values: PubChem BioAssay AID488969 (Vanderbilt High Throughput Screening Facility, 2010).
